This assay relates to CCRF-CEM leukemia. Put plainly: NCI-60 one-dose screen, 48 h (100 = growth as untreated, 0 = no growth, -100 = all killed).

Some structures have more than one record in an assay (separate samples or runs), and their calls can disagree.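 Results are percent growth after 48 hours of single-concentration exposure. 100 means growth as in untreated cells, lower positive values show inhibition; negative values down to -100 show cell death.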 A number of entries come with more than one value. The other results are left out here. How the source made its calls: active means growth percent below 10; inactive means the rest. There may be further records. The screen tested this drug many times, at the concentration stated with the values; one value stands for one run. Signs of the kind (2×) give the number of equal values in this list.

For `COc1cccc2c1C(=O)c1c(O)c3c(c(O)c1C2=O)C[C@@](O)(C(=O)CO)C[C@@H]3OC1CC(N)C(O)C(C)O1` (stereo not given in full), the growth entry is, setting by setting: (0.25 µM, runs of 2015) “inactive: 35.1, 42.1, 35.5, 29.5, 34.3 (2×), 35.4, 33.3, 32.8, 35.9, 36.6, 39.1, 40.2 (2×), 27.2 (2×), 28.8 (2×), 37.6, 26.8, 24.9 (2×), 68.1, 66.1, 13, 12.3, 17.2, 14.3, 22.2 (2×), 39.4, 17.3, 16, 10.5, 14.1, 20.2, 24, 21.7 (2×), 37.8, 21.9, 28 (3×), 18.9, 32.2, 19.7, 17.9, 22.5, 18.6, 30.4, 52.9, 24.4, 21.5, 24.3, 25, 26.9, 15.7, 18, 22.9, 20.8, 25.3, 18.8, 27.7, 33.4, 18.1, 23.6, 11.9, 20.6%”; (0.25 µM, runs of 2016) “inactive: 26 (2×), 27.7, 23.3 (2×), 23.6 (2×), 31.9, 25.7 (2×), 25.4, 32.2, 36.4, 33.5, 38.9, 32.4, 40, 24, 27.4 (2×), 31.6, 26.1, 26.9 (2×), 17.9 (2×), 17.5, 25.1, 24.9 (2×), 20.2, 18.5, 23.7 (2×), 22.3, 23 (2×), 18.6, 19.2, 25.8 (2×), 22, 40.1, 21.4, 36.2, 18 (2×), 15.8, 24.6, 22.1, 21.8, 22.2, 29.7, 27, 18.9, 30.1, 27.3, 24.3 (2×), 32.9, 26.4, 29.3, 28.8, 28, 27.9, 30.2, 31.1, 16.8, 27.6, 28.5, 33.7, 32, 24.5, 25, 30.7, 34.6%”; (0.25 µM, runs of 2017) “inactive: 40.9, 38.2, 31.6, 25.3, 22, 23.8, 25.5, 16.2, 23.6, 20.6 (2×), 25.6 (2×), 23.1, 27.6, 27, 22.6 (3×), 20.3 (3×), 24.7, 20.8 (2×), 22.5 (2×), 20.5, 17.7 (2×), 15.5 (2×), 22.3, 15, 16.3, 14.6, 15.8, 19, 18.9, 22.1 (2×), 20.7, 14.2, 18.6 (2×), 26.2, 25.1, 26.9, 24.9 (2×), 29.2, 26.1, 27.4, 25.8, 25.4 (2×), 16.5, 15.3, 21.2, 22.2, 26.8, 18.3, 20.2, 21.8, 18.1, 14, 27.7, 26, 18.8, 15.2, 17.2, 16.8, 12.1% and active: 7.99%”; (0.25 µM, runs of 2018) “inactive: 21.6 (2×), 22.3, 14, 14.2 (2×), 11, 13.6, 12.3, 15.1, 11.9, 11.5, 26.5, 11.1, 16.2, 16.8, 18.1, 19, 19.2 (2×), 25, 22.5, 24.7, 15.2, 20.5 (2×), 24.3, 20.7 (3×), 22.6, 26.4, 25.3, 18.9 (2×), 24, 26.1, 15, 20, 24.2, 21.8, 17.9, 27.2, 15.9, 21.1, 35.5, 31, 12.7% and active: 9.14%”; (0.25 µM, runs of 2019) “inactive: 23, 22.1, 19.2 (2×), 25, 27, 29.2 (2×), 13.3, 12, 20.2 (2×), 15.3, 19.7 (3×), 21.9, 23.8 (2×), 21.5, 21.6, 28.9, 26.2, 27.2, 23.7, 28, 23.1, 24, 23.2, 20, 27.1, 24.5, 31, 27.7, 20.6, 25.1, 20.3, 12.3, 14.8% and active: 9.74%”; (0.25 µM, runs of 2020) “active: 3.91%, 9.7% and inactive: 14.6, 16.5, 17.2, 18.1, 19.4, 21.4, 17.9, 20.8, 20 (2×), 13.6, 18.8, 15.7, 13.9, 26.4, 21.6, 23.7, 21.5, 24.6, 23.6, 12.2, 23.3%”. The growth result reads like this: (0.25 µM, runs of 2021) “inactive: 10.2, 20.5, 18.8 (2×), 20.8 (3×), 20.9 (2×), 21.1, 21.4, 20.1, 22.5, 19.4, 20.2, 22.3, 20.7, 19.8 (3×), 17.8, 14.8, 10.7, 23 (2×), 25.5, 18.6 (2×), 20.3, 26.2, 19.2, 22.2, 25, 24.5, 11.6, 13.2, 18.1, 13.1, 15.3, 24.9, 17.5, 27.3, 27.8, 26.9% and active: 7.81%”; (0.25 µM, runs of 2022) “active: 6.04, 8.5, 6.66, 1.2, 8.04, 1.81, 9.42, 8.14% and inactive: 32.2, 39.4, 15.1, 23.2, 24.6, 21.1, 29.8, 27.2, 26.7, 18.6, 25, 27.6, 28.8, 12.4, 28.5, 48, 10.7, 15.9%”; (25 µM, runs of 1991) “active: -42, -25.4, -34.7, -24.8, -32, -38.7, -29.2, -26.7, -40, -11.5, -27.7, -24.2, 3.9, 5.32, -26, -26.9, -54% and inactive: 11.4%, 12.2%”; (25 µM, runs of 1992) “active: -8.86, -8.2, 0.899, -30.3 (2×), -25.5, 3.25, -23.6 (2×), -15.7 (2×), -17.7, -25.2, -34.4, -20.3 (2×), -35.7 (2×), -43.1, -20.8, -21.9, -22.2, -39.4, -32.6 (2×), -37.6, -15.9, -11.6, -36, -67, 2.04, -17.5, 3.98, -48.6, -71.7, -43.2, -55.4, -16.7, -13.2, -38.3, -23.1, -28.7 (2×), -27.2 (2×), 6.58, -49.5, -63.1, -45 (2×), -41.2, 2.82, -7.22, -21.4, -37, 3.33, -28.5, -40.5, -25.9, -23.8, -31.4, -27.9, -25.4, -31.3, -11.8, -5.77, -24.7, -6.09, -28.6, -44.8 (2×), -5.16, -39.5, -29.7, -33.1, -53.9, -7.73, -24.2, -34.5, -28.9, -8.14, -43.9, -7.99, -33.9 (2×), 3.34, -8.9, -27.4, -17.9, -27.8, -5.17, -36.6 (2×), -37.2, -9.89, -26.2, -36.9, -34.8, -22, -2.85, -17.2, -19.8, -24, -41.6, -22.5, -28.4, -3.88, -29.3, -23.2, -23.5, 4.45, -21.7, -33.6% and inactive: 18.8, 14.3, 11.4 (2×), 25, 12.5, 39.9, 14, 40%”; (25 µM, runs of 1993) “active: -21, -5.17, -3.76, -41.3, -20, -34, -4.18, 7.09, -45.7, -38.6 (2×), -2.97, -21.6, -55.8, -0.334, -40.1, -33.5, -25.3, -20.9, -65.1, -27.9, -37.6, -31.1, -26.8, -47.9, -22.9, -23.5, -49.4, -30.6, -37.5, -34.9, -19.4, -25.5, -35, -28.5, -7.35, -48, 0.27% and inactive: 26.5, 13.4, 47.6, 68.4, 16.5, 26.8%”; (25 µM, runs of 1994) “active: -18.3, -32, 5.14, -2.38, -25.8, 9.9, -20.7, -17.1, -48.2, -22.9, -54.8, -54.6, -37.1, -27.8, -0.906, -2.25, -45.5, -4.01, 9.94, -33.9, 0.0575, -21.3, -41.6, -50.5% and inactive: 48, 14.8, 26.7, 25, 13.6%”. The growth result reads like this: (25 µM, runs of 1995) “active: -42.6, 0.604, 9.96, -17.9, -4.28, -57.6, -21.1, -20.9, -17.7, -40.8, 0.445, 2.99, -14.7, -27.1, -8.75, -12.8, -26.8, -23, 2.96, -36.9, -16.4, -19.5, -10.4, -38.2, -47, 0.64, 6.12, -9.38, -22, -24.4, 7.9, -59.5, -50.8, -38.5, -49.7, -56.8, -32.8, -51.9, -4.35% and inactive: 10.3%”; (25 µM, runs of 1996) “active: -31.9, -50.6, -58.9, -40, -6.59, 3.13, -5.73, -23.3, -40.9, -11.4, -35.5, -14.5, -37.8, -64.6, -29.3, -19.3, -51.9, -9.85, -15.4, -53.8, -40.4, 5.79, -45.4, -26.7, -17, -48.8, -56.1, -31.2, -36.1, -21.9, -49.9, -44.5, 9.67, -35.1, 0.896, -23.9, -37.5, 9.34, -100, -34.6, 5.43% and inactive: 18.1, 11.1, 77.3, 27.5, 12.1, 13.4, 68.4%”; (25 µM, runs of 1997) “active: -29.7, -19.7, -22.5, -45.7, -31.8, -69.1, -51.1, -17.5, -0.524, -19.1, 7.61, -36.2, -7.67, -46.2, -11.1, 5.55, -34.3, 1.34, -45.8, 1.44, -1.04, -22.1, 0.198, -78, -12.2, -27.8, 1.78, 4.21, -27.2, -4.64, 2.95, -10.3, -58.5% and inactive: 15.8%, 78.2%”.

The values are drawn from PubChem BioAssay (NCI).
